# Reference: ChEMBL document CHEMBL4888484, “Replenishing the malaria drug discovery pipeline: Screening and hit evaluation of the MMV Hit Generation Library 1 (HGL1) against asexual blood stage Plasmodium falciparum ,using a nano luciferase reporter read-out” (2022)
# The whole screen tested about 150,000 compounds, of which about 540 (0.36%) showed an effect of 50% or more. This is one part of the list.
# Test system: Plasmodium falciparum
# Assay: Primary screen in NF54 nanoGlo assay, in single point, at 2uM, 72h; a lower Z score goes with more inhibition
# Type: functional, Erythrocyte
# Settings: timepoint 72 hour
Compound,% Inhibition,Z score
COc1nn(C)cc1C(=O)N1CC2CC1C(=O)O2 (stereo not given),-15%,2.77
O=C(CN1N=C(c2ccccc2F)c2cc(Cl)ccc2S1(=O)=O)Nc1ccc2c(c1)OCO2,-25%,2.31
O=C(CCc1ccncn1)N1CC=C(c2cccc3ccccc23)C1,-15%,1.81
CC1CC(C(=O)Nc2ccc([C@H]3C[C@@H]3C(=O)O)cc2)CCO1 (stereo not given in full),-10%,1.9
CC(C)CC(=O)Nc1nc(C(=O)NC(C)C)cs1,-2%,0.26
COc1nccnc1N[C@H]1C[C@@H](c2cc(N3CC[C@H](O)C3)ncn2)C1,-16%,1.96
NS(=O)(=O)CCNC(=O)NCC1(C2CC2)CCC1,-13%,1.83
C[C@H]1Cc2ccccc2N1C(=O)C1CCN(c2cc(-n3cncn3)ncn2)CC1,16%,-2.04
O=c1ccc(-c2cc(F)cc3cccnc23)c[nH]1,-14%,1.52
O=C(C1CCOCC1)N1CC(n2nccn2)C1,17%,-1.96
Cn1ncc(NC(=O)C(F)(F)C2(O)CCC2)c1C(F)(F)F,-6%,0.74
COc1cc(C)ccc1NC(=O)N(CCO)C(C)C,-5%,0.77
CCCCn1c(=O)[nH]c2c(C(=O)N3CCCC3)snc2c1=O,-12%,1.99
COc1ccc(NC(=O)Cn2cc(S(=O)(=O)c3ccc(C)cc3C)c(=O)c3ccc(C)nc32)cc1Cl,-14%,1.42
O=C(Nc1ccncc1)c1ccc2ccccc2c1,-38%,4.5
CCc1cc2c(Nc3ccc4c(c3)OCO4)ncnc2s1,-25%,2.27
Cc1nn(C)c(-n2cccn2)c1C(=O)O[C@H]1CCOC1,-13%,1.47
Cc1nc2c(c(NC(=O)C3CCCCC3)nn2C)c(C)c1Cl,24%,-2.67
CCOc1cc(-c2nccn2-c2ccc3cn[nH]c3c2)ccc1O,-7%,0.92
Cc1c(CNc2ccc(Br)cn2)cc(C#N)n1C,-12%,1.8
CNC(=O)c1ccc(CNC(=O)Nc2c(C)cnn2C2CCCC2)o1,17%,-1.65
Cc1cc(CN(C)Cc2cc3n(n2)CCCN(Cc2ncccc2F)C3)no1,-20%,3.93

Compound,% Inhibition,Z score
Cc1ccc(NC(=O)C(=O)Nc2ccc3c(c2)OCO3)cc1N1CCCC1=O,-12%,1.85
COCCN(CCOc1ccccc1F)C(=O)c1cncc(O)n1,-14%,2.67
O=S(=O)(NCCc1csc(-n2cccn2)n1)C1CC1,3%,-0.41
COc1cc2cc(c1)C(=O)NCCCC(=O)N[C@H]1CN(C(=O)c3cc(C)ccc3Cl)CC[C@@H]1OCc1cccc(c1)O2,3%,-0.65
Cc1ccc(C(=O)NC2CCC(N3CCN4C(=O)CCC4C3)C2)cn1 (stereo not given),-14%,1.72
OCCn1nc(-c2ccncc2)nc1CCN1CCCCCCC1,-8%,1.31
O=C(CN1CCN(c2ncnc3sccc23)CC1)NCC1CCCCC1,-10%,1.37
Cc1c(-c2ccccc2)sc(NC(=O)C2CCN(S(C)(=O)=O)CC2)c1C(=O)N1CCCCC1,-3%,0.38
COc1ccc(CCC(=O)N2CCC[C@H]2c2cc(C(C)C)no2)cc1,-14%,1.92
COCc1nnc(CNC(=O)NC2(C)C(C)(C)C2(C)C)[nH]1,10%,-1.25
CC(C)Cn1ncnc1CN[C@@H](C)c1ccc(C2CC2)cc1,1%,-0.14
Clc1ccc(-c2cn3c(nc4ccccc43)c(-c3ccccc3)n2)cc1,-43%,5.09
N#CCOc1ccc(Br)cc1Br,-10%,1.96
Cc1noc(CCC(=O)N[C@H](C)c2ccc(Cl)cc2)n1,-8%,1.3
CCCN(C)c1nccn2c(=O)n(CC(=O)Nc3ccc(F)c(Cl)c3)nc12,-8%,0.79
C#CCNC(=O)[C@@H]1Cc2c[nH]c3cccc(c23)[C@H](CC(C)C)N1,1%,-0.22
CC(C)[C@H]1CN(C)CCN1Cc1ccc2cc(O)ccc2c1,-17%,2.23
Cc1ccc(-c2nn[nH]n2)cc1-n1cccn1,34%,-0.61
CNc1nc(NC[C@H]2CCCS2(=O)=O)ncc1Br,-6%,0.61
CC(C)N(Cc1nccn1C)C(=O)Nc1ccccc1OC[C@H]1CCCO1,4%,-0.7
O=C(NC[C@H]1CC[C@H](c2ccccc2)O1)c1cc(C(F)F)ncn1,4%,-0.62
Cc1nc(C(C)C)cc(N(C)C[C@H](C)N2CCOCC2)n1,6%,-0.55

Compound,% Inhibition,Z score
COc1ccc(NC(=O)Nc2ccc(CCc3nc4ccccc4n3C)cc2)cc1,-2%,0.28
CN(C)C(=O)NCC(=O)N1CC[C@@]2(CCCN(C3CCCC3)C2=O)C1,-13%,2.55
CCN(C)C1(CNc2cnc3ccccc3n2)CCCC1,-13%,1.39
COc1ccccc1CNC(=O)[C@]1(C)Cn2nc(-c3ccccc3)cc2C(=O)N1CCc1ccco1,-10%,1.64
O=C(c1ccc[nH]1)N1CC[C@@]2(CCCN(C3CCCC3)C2=O)C1,-15%,1.38
O=C([C@H]1C[C@@H]1c1cccc(Cl)c1)N1CCC(O)(C(F)F)CC1,-10%,1.26
O=S(=O)(NCC1(O)CCCC1)c1ccc(Cl)s1,-18%,3.02
CCS(=O)(=O)Oc1ccccc1CN(CC1CC1)C(=O)C1CCC1,-13%,1.57
CC(C)(C)CC(=O)Nc1cccc(C#N)c1,11%,-1.51
CN1CCC(N2CCCC2CC(O)c2ccccc2)C1=O (stereo not given),8%,-0.85
Cc1noc(-c2c(C)[nH]c(C)c2S(=O)(=O)Nc2cccc(Cl)c2C)n1,-2%,0.43
O=C(CC1CCCO1)N1C[C@H](O)C[C@H]1c1n[nH]c(-c2ccccc2)n1 (stereo not given in full),-20%,3.87
CCS(=O)(=O)C1CN(C(=O)CCc2c[nH]c3ccc(C)cc23)C1,10%,-1.14
CNc1ncc(C(=O)NCc2noc(C(C)C)n2)cn1,-6%,0.89
Cc1nc(CCNC(=O)NCCN2CCCC[C@@H]2C)cs1,-4%,0.8
C=CCN(C)CCN(CC)S(=O)(=O)CCC1CCOCC1,-3%,0.57
O=C1NC[C@@]2(CCCN(C(=O)CCCn3cncn3)C2)O1,-2%,0.37
CCCc1cnc(C)nc1N1C[C@H](NC(=O)CNC)[C@@H](C(C)C)C1,7%,-1.01
CC(C)CCN(CC(=O)N1CCNCC1)C(=O)c1ccc(F)c(Cl)c1,1%,-0.05
CC(C)N(c1ccccc1)c1ccc(NC(=O)C2CCC2)cc1,1%,-0.19
O=C(c1cc(-c2ccncc2)on1)N1CCOC2(CCCCCC2)C1,32%,-4.58
CCc1cc2c(Nc3ccc(N(C)C)cc3)nc(C)nc2s1,-20%,2.59

Compound,% Inhibition,Z score
CC1CCC2(CC1)NC(=O)N(CN1CCC[C@H]1c1ccc3c(c1)OCCCO3)C2=O (stereo not given in full),2%,-0.43
Cc1ccc(C(=O)N2CC[C@H](F)C2)cc1C(=O)N1CC[C@H](F)C1,13%,-1.71
Cc1ccc(NC(=O)N2CCN(Cc3ccncc3)CC2)c(Cl)c1,-7%,0.72
O=C(c1cnn2cccnc12)N(c1ccccc1F)C1CCCC1,-19%,3.12
O=C1[C@@H]2Cc3c([nH]c4ccccc34)CN2C(=O)CN1Cc1ccc(F)cc1,-1%,0.17
O=C(NCCN1CCOCC1)c1cncc(-c2ccccc2Br)c1,-20%,2.45
COc1ccc(-n2cnc3c2NC(=O)C[C@@H]3c2cccnc2)c(OC)c1,-7%,0.86
O=C(Nc1ncc(Cc2ccc(Cl)cc2)s1)c1cccc2ccccc12,-9%,1.4
CS(=O)(=O)N1CCc2nc(NC(=O)c3cnccn3)sc2C1,-7%,1.04
CC(C)CCc1cc(NC(=O)[C@@H]2C[C@@H](C)CCO2)n(C)n1,-10%,1.26
Cn1cnc2cccc(C(=O)N[C@H]3CCS(=O)(=O)C(C)(C)C3)c21,-2%,0.28
CC(C)(C)NC[C@H](O)COCCOc1ccc(Cl)cc1,-9%,1.47
CN(C)C(=O)c1ccc2c(c1)ncn2CCNC(=O)NC(C)(C)C,-16%,2.67
CC(C=Cc1ccccn1)NCC(c1ccco1)N1CCCC1 (stereo not given),-5%,0.61
C[C@@H]1CC(=O)N[C@H](C(=O)Nc2cncc(-c3cnc4[nH]ccc4c3)c2)C1,-16%,2.68
CCC1(CNS(=O)(=O)c2csnc2C(=O)OC)CC1,6%,-0.91
O=C1c2ccccc2CCC1C1(O)C(=O)N(C/C=C/c2ccccc2)c2ccccc21 (stereo not given),8%,-1.04
CC(C)(C)OC(=O)N1CCC(c2c(C(=O)NCc3ccccc3Cl)cnn2-c2ccccc2Cl)CC1,-2%,0.41
Cc1n[nH]c(N2CCN(Cc3ccc4ccc(Cl)cc4n3)CC2)n1,-7%,1.07
